# The campaign covered roughly 310,000 compounds. About 2,200 (0.71%) showed an effect of 50% or more. The effect is printed as a negative number. The list shows a part of the results.
# Target: human ether-à-go-go-related gene (hERG) potassium channel (human, UniProt Q12809)
# Assay: primary screen, population patch clamp on CHO cells stably expressing hERG
# human ether-à-go-go-related gene (hERG) potassium channel, sequence (Q12809 whole entry, looked up): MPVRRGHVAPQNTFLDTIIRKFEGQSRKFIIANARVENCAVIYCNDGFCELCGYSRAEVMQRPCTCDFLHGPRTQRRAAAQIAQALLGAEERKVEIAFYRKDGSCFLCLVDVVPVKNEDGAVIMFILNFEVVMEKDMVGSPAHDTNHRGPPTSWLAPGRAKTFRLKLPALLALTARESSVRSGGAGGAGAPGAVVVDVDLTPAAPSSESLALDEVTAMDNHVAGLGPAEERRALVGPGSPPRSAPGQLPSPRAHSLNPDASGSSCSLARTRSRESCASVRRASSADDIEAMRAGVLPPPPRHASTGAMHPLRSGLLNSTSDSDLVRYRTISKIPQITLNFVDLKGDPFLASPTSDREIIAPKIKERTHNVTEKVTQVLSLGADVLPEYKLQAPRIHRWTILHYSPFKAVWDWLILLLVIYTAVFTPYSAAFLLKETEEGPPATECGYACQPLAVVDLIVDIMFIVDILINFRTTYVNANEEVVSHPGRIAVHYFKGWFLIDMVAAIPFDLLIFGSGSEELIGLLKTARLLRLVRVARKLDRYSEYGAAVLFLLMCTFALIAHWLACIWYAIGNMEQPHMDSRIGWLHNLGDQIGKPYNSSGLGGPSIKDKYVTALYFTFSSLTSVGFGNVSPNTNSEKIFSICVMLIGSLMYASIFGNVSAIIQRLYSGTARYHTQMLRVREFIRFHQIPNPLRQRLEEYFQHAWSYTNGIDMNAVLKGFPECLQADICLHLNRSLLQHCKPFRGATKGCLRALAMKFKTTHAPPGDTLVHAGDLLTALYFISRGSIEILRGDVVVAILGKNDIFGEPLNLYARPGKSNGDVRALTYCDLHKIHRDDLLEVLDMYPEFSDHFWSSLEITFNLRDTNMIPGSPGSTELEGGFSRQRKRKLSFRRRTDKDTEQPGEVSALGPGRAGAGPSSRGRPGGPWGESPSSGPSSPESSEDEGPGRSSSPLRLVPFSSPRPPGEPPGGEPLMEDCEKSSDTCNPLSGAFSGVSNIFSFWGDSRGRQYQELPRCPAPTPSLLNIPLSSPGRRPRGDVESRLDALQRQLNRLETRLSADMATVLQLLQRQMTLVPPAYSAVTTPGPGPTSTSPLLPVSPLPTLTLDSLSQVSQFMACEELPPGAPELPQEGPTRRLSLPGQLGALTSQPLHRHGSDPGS
row,Structure (SMILES),"hERG current change (%, negative = inhibition) at 1uM"
1,COc1ccc(N(CC(=O)Nc2c(C)n(C)n(-c3ccccc3)c2=O)S(=O)(=O)c2ccc(C)cc2)cc1,-5.73%
2,COC(=O)c1noc(C)c1-c1ccnn1C(=O)c1ccc(C)cc1,14.2%
3,CCNC(=O)N1CCC(n2nccc2NC(=O)CCCc2ccccc2)CC1,16.7%
4,O=C(Nc1cccc(F)c1)c1sc(Cl)nc1-c1ccccc1,5.72%
5,COC(=O)c1ccc(CSc2nnc(CNC(=O)COc3ccc(Cl)cc3)o2)o1,-8.23%
6,COc1cc(/C=N/NS(=O)(=O)c2ccc3ccccc3c2)ccc1OCCN1CCOCC1,11.1%
7,COc1ccc(C2=CC(=O)N(Nc3ccccc3)C2=O)cc1,29.7%
8,Cc1c(NC(=O)c2ccc3c(c2)C(=O)N(Cc2ccco2)C3=O)cccc1C(=O)O,9.81%
9,CCOc1ccc(NC(=O)N2CC(C)OC(C)C2)cc1 (centres unmarked),14.3%
10,N#Cc1ccccc1/C=C/C(=O)N1CCOCC1,16.7%
11,CC(Oc1ccc2c(-c3ccccc3)cc(=O)oc2c1)C(=O)N[C@H](Cc1c[nH]c2ccccc12)C(=O)O (some centres unmarked),13.4%
12,CCN(CC)c1nc(SCCOC(=O)Nc2ccccc2)nc(N(CC)CC)n1,8.13%
13,O=C(CSc1ncn[nH]1)N/N=C/c1ccc(F)cc1,16.2%
14,Cc1ccccc1C(=O)NC(=S)Nc1ncccn1,7.98%
15,CC(NC(=O)c1ccc2ccccc2n1)c1ccc(S(N)(=O)=O)cc1 (centres unmarked),19%
16,CC12CC3(C)CC(C)(C1)CC(C(=O)NCc1cccnc1)(C2)C3,8.6%
17,Cc1ccc(CSc2nnc(-c3ccncc3)o2)c(C)c1,17.8%
18,COc1cn(-c2ccccc2)nc1C(=O)Nc1ccc(C)cc1,10.3%
19,O=C(OCc1cc2ccccc2[nH]c1=O)c1cccs1,22.2%
20,CC(=O)NC(CCS(C)(=O)=O)C(=O)Nc1cccc(C)c1C (centres unmarked),2.45%
21,O=c1c(Cc2ccccc2)c(O)ccn1C1CCCCCCC1,7.62%
22,CCOc1ccc(Oc2ccccc2NC(=O)CSCC(=O)Nc2cc(C)on2)cc1,14.6%
23,O=C(Nc1cccc(-c2nc3ccccc3s2)c1)c1cccs1,5.95%

row,Structure (SMILES),"hERG current change (%, negative = inhibition) at 1uM"
1,Nc1nc(NCCN2CCOCC2)nc(NCc2ccccc2)c1[N+](=O)[O-],2.83%
2,Oc1c(N=Nc2ccc(F)cc2)ccc2ccccc12,10.7%
3,CC(=O)N1N=C(c2ccc(Cl)cc2)CC1c1ccco1 (centres unmarked),11%
4,Cn1cccc1CC(=O)N/N=C/c1cccc([N+](=O)[O-])c1,18.6%
5,Cc1cc(F)ccc1NCc1ccccc1[N+](=O)[O-],12.7%
6,Cn1ccnc1SCc1ccc([N+](=O)[O-])cc1,4.75%
7,Cc1cc(C)nc(NN2C(=O)C=CC2=O)n1,11.6%
8,CN1C(=O)CC(C(=O)Nc2ccc(F)cc2)SC1=Nc1ccc2c(c1)OCO2 (centres unmarked),15.2%
9,Cc1csc2nc(COC(=O)CNC(=O)c3ccc(Cl)cc3)cc(=O)n12,1.84%
10,CC(=O)c1c(C)[nH]c(C(=O)COC(=O)c2cccc(S(=O)(=O)N(C)c3ccccc3)c2)c1C,11.6%
11,S=c1[nH]nc(CSCc2ccccc2Cl)n1-c1ccccc1,8.2%
12,O=C(O)[C@H](Cc1ccccc1)NC(=O)N1CCN(c2ccc(F)cc2)CC1,-4.76%
13,O=C(CCCn1c(SCC(=O)c2ccc(O)c(O)c2)nc2ccccc2c1=O)NCC1CCCO1 (centres unmarked),18.8%
14,O=C1CCC(C(=O)OC(C(=O)Nc2cc(Cl)cc(Cl)c2)c2ccccc2)=NN1 (centres unmarked),12%
15,COc1cccc(NC(=O)C2CCCCC2)c1,3%
16,CCN(Cc1cc(=O)[nH]c2ccccc12)C(=O)c1ccc(C)cc1,7.89%
17,Cc1cccc(NCc2ccc(O)c3ncccc23)c1,17%
18,COc1ccc(-c2csc(NC(=O)CN3C(=O)NC4(CCCC4)C3=O)n2)c(OC)c1,4.95%
19,O=C(O)c1ccccc1NC(=O)N1C[C@H]2C[C@@H](C1)c1cccc(=O)n1C2,7.17%
20,Cc1ccc(S(=O)(=O)/C(C#N)=C/c2c(N3CCN(C)CC3)nc3ccccn3c2=O)cc1,-28.2%
21,O=C(NCCc1ccccc1)c1nnc(CS(=O)(=O)c2ccccc2)o1,-9.24%
22,O=C(Nc1ccc(CN2CCOCC2)cc1)c1ccc(Br)cc1,10.9%
23,CCC(C)NC(=O)c1cnc2n(c1=O)CCS2 (centres unmarked),12.2%

row,Structure (SMILES),"hERG current change (%, negative = inhibition) at 1uM"
1,CCOC(=O)NC(=O)c1cn(Nc2ccccc2)c(=O)[nH]c1=O,18.2%
2,Cc1cccc(C)c1NC(=O)CNc1ccccc1,8.21%
3,Cl.O=C(O)CNc1nc(-c2ccccc2)nc2ccccc12,25%
4,CCOC(=O)CNNC(=O)Nc1ccc(Cl)c(Cl)c1,14.7%
5,CN(C(=O)c1ccc2ccccc2c1)c1ccccn1,12.8%
6,O=c1c2ccccc2nnn1CCN1CCOCC1,13.2%
7,O=C(c1ccc(-c2ccccc2)cc1)N1CCN(c2ncccn2)CC1,9.41%
8,O=C(Cc1cccs1)NCc1ccc(Cl)cc1Cl,9.05%
9,O=C(COC(=O)c1ccccc1NCCO)NNC(=O)c1cccs1,-2.4%
10,NC(=O)c1ccc(-n2nnnc2SCc2ccc(F)cc2)cc1,-1.02%
11,Cc1cc(=O)[nH]c(SCC(=O)Nc2cccc3ccccc23)c1C#N,-4.29%
12,CC1(c2ccccc2)NC(=O)N(CC(=O)N2CCN(S(=O)(=O)c3cccs3)CC2)C1=O (centres unmarked),9.74%
13,COc1cccc(/C(C)=N/Nc2ccc(S(=O)(=O)N3CCCCC3)cn2)c1,4.59%
14,O=[N+]([O-])c1ccccc1OC/C(=N\O)c1ccccc1,7.38%
15,COc1ccc(C2C3=C(CCCC3=O)N(CC(=O)O)C3=C2C(=O)CCC3)cc1,18.1%
16,CS(=O)(=O)O.Cn1cc(C(F)(F)F)nc1-c1ccc(OCC(O)CNCCOc2ccc(O)c(C(N)=O)c2)cc1 (centres unmarked),-1.51%
17,CCc1nn(CC(=O)N2CCC(C(N)=O)CC2)c(=O)c2cc3occc3n12,4.89%
18,COc1ccc([C@H]2CC(=O)C=C(c3ccccc3Oc3ccccc3)C2)cc1,12%
19,O=C(CSc1nnnn1-c1cccc(C(=O)O)c1)NC(c1ccccc1)c1ccccc1,15.2%
20,Cc1noc(COc2ccccc2OCC(N)=O)n1,12.9%
21,C=CCNc1nc(Nc2ccc([N+](=O)[O-])cc2)nc(OC)n1,6.06%
22,Cc1cc(C)n(-c2nc3ccccc3c(=O)n2OC2CCCCC2)n1,15.1%
23,Cc1ccc(S(=O)(=O)N2CCN(C(=O)COC(=O)c3ccc(O)cc3)CC2)c(C)c1,5.11%

row,Structure (SMILES),"hERG current change (%, negative = inhibition) at 1uM"
1,COc1ccc(C(=O)NCCc2nnc3ccc(SCC(=O)NCCc4ccc(OC)c(OC)c4)nn23)cc1,9.45%
2,Cc1cccc(CC(=O)NC2CCN(C)CC2)c1,16.4%
3,Cc1nn(-c2ccc(C(=O)O)cc2)c(C)c1Oc1ccccc1O.O=S(=O)(O)O,8.88%
4,CCOC(=O)c1[nH]c2ccc(OC)cc2c1NC(=O)CCN1CCN(Cc2ccccc2)CC1,-36%
5,COc1ccc(CCN(C)Cc2c(O)ccc3ccccc23)cc1OC,-11.3%
6,Cc1c(CCC(=O)NCCCCCC(=O)O)c(=O)oc2cc3occ(-c4ccccc4)c3cc12,15.3%
7,CCN(CC(=O)NCCc1ccc(S(N)(=O)=O)cc1)Cc1nc2cc(OC)c(OC)cc2c(=O)[nH]1,8.01%
8,COc1cccc(-n2nnc3c(=O)n(CC(=O)NCC4CCCO4)cnc32)c1 (centres unmarked),13.8%
9,c1cc(CNc2ccc3c(c2)OCCO3)ccn1,15.6%
10,CN(CC(=O)Nc1cccc(F)c1)C(=O)CSc1ccccc1,9.93%
11,COc1cc(C(=O)N/N=C/c2cccc(Oc3ccccc3)c2)ccc1O,14%
12,COc1cc2[nH]c(C(=O)N3CCC(Cc4ccccc4)CC3)cc2c(OC)c1OC,18.3%
13,Cc1[nH]c2ccccc2c1CCN(Cc1cccnc1)C(=S)NC(C)(C)C,15.2%
14,CSCc1cc(N2CCCC2)nc(-c2ccccc2)n1,9.08%
15,CCOC(=O)C1=C(C)NC(=O)NC1c1ccccc1Cl (centres unmarked),13%
16,CC1(C)CC(NC(=O)c2ccc(-c3ccc([N+](=O)[O-])cc3)o2)CC(C)(C)N1,-3.5%
17,Cc1ccc(C(CC(=O)NCc2ccco2)c2ccccc2)c(O)c1 (centres unmarked),3.09%
18,Cc1nnc(SCC(=O)NNC(=O)c2ccco2)n1-c1cccc(Cl)c1,13.7%
19,CN(C)CCSc1nc(N)c2c3c(sc2n1)COC(C)(C)C3,-7.27%
20,Cc1ccc(S(=O)(=O)Nc2ccc(C(=O)NCc3cccnc3)cc2)cc1,10.9%
